The other results are listed elsewhere or left out. At the low end of the ranking the order means little. Measured with an extract: partners may take part in the binding.
What follows are sequences tested against T1, HNF4alpha2 (COS-7 nuclear extract) (UniProt P41235) (assay: protein-binding microarray). Conditions: COS-7 nuclear extract on double-stranded Agilent 4x180k PBM; binding buffer, salt, pH and temperature not given; high values mean tight binding; double strand, one strand shown; sequences stand for … in …GCCTAGGGAGATTAGAGTATCGGTCGA.
T1 sequence: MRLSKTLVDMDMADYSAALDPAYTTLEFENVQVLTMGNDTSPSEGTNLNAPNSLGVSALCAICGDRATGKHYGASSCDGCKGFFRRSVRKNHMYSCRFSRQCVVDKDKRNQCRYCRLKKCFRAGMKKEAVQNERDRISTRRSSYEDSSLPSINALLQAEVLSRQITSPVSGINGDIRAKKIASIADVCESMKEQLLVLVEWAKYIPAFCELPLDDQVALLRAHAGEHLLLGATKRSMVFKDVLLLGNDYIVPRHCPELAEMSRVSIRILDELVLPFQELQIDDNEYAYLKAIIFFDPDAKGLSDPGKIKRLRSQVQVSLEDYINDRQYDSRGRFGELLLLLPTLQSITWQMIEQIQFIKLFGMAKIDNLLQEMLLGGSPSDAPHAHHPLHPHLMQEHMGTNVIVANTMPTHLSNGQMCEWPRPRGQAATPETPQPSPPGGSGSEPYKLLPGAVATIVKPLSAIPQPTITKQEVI

Sequence | binding signal (log2 normalized intensity)
TGCTGGGGGCTGGGCCCCACAGTGCATCTG | -1.04
TGTGTTGCACTGTTTGCATAAAGTTAAACT | 0.214
CATCACACTCCTACCCATTCTTCAGAGGCA | -1.1
CTTAAGTCTGAATTCTAGTCCTATCACTGT | 0.367
TAGTACTCTGCCATGTGCTATTCTGTCTCC | 1.22
TCCATTCTCACTGACTCACGGCAGCTTGTA | -0.764
ACCTCCACCAGATAGCAAGGAGACATCGCT | -1.23
CAAGAATTGGAACCCTGCTGTCCATAGACA | -1.17
AGATGCCAGGAGAGCCGAAGCAGTCAAATG | -1.21
TGACCCTTGCACTGTAAGATCAAGATTAAG | 2.81
AAGAAAAAACAAAAAGATGGTCTTACAACA | -0.887
ACCGAGCAGCTCTTTACAAAGCCCATGCTG | -1.21
TGGACCATTGCTGACCTTGCCTCTGTGCTC | 1.75
GGAAGTCCAGCATTCTTTTCCCCATACCAG | 1.33
TTTCTTTGTACTGCTTCCAAAACATTGTAG | 0.777
GAGGCTGAAGTGAAGTTACAAAGGTCACAC | 5.43
CTCTCCACCCCCATGCAAGTTCCCACAGAG | 4.51
CCTGATAATGACTCTTGAACCACAGTCCCC | 1.03
ACAGTAACCCTTGAGCTCTGCACAGCACAA | -1.04
AGATCAGATGGGGTGAACTTTGGACCACAT | 7.41
GAGGGGTCTGAGCACATCACACAGGCATAT | -1.11
GCACCAGAGCAGGACTGATATCCTGGGCTT | -1.06
AGGTGGAGACCTCTGCAGGAGGACTGGATC | -1.18
CAACTATAGAAAGCCTTTGAACTGTGTTGC | 1.75
TTGCTGGTCAAGCTAAGCACAACTGATTCT | -1.01

Sequence | binding signal (log2 normalized intensity)
ATTCACATCTCCAGTTCCAAAGTCCAGGTG | 5.67
CCTGTTTACAATGGAAAGATTAGGTCAAAG | 1.05
AGCCTGAGGCAGTTGGAAAATATTTCTCTG | -1.14
TTCAGCTAGCTGAGTGAGTAGGTTCTCAGC | -1.1
CCCCCACCACAAAGCAGTGAGTGAAACATC | 2.35
AGGAACCTGTTTTACAGGACATAGTCCTCT | 0.24
GGGGCCACCTTTTCAGCTTCCTCCTGCGTC | -1.1
GCCCCCAGCCAGGCCCCAGGCCAACCGGTT | 4.96
GCCTGTGACAAAGTCCATCTGGGCAAGGTG | 3.4
ACCTTCCATTACCACATTCTCACCACTAGG | -1.06
AAACATAGAAAGGAGTACACACCATAAGAG | -1.08
CAGGGTCCAACCCACAGGGGTAGAAGCTGA | -1.02
CTGAGGAAAGGAAGATGCACATTCCCTCCA | -1.13
ATTTATTAACTGGAGATAACACAACCCCTA | 2.45
TACCCTGAGGGACTCACTATCTTGAGGCTG | -1.09
GTAACAGTTGCAGCTTCAGGAGCTGCAGGG | -0.981
AAAAGTCTACCTTTGGCCTGGGGATTTACT | 0.82
GAATGCGCTTTCATGAGATGAAAGCTTCTG | -1.15
GTCCTTCCCCCGCCAGATGTTTTTACCCTG | 2.69
TGCCTTATCTGGTTCAAAGGTCATTTCTGC | 6.58
ATAAAAGAGAAGATAATGGATTGGGGGCCA | -1.19
GCAAACCTCCCCAGCCCAGGTGGCTGCATC | -0.00436
GAAGTGGGGTAAGCAAGGCTCTTAGCAGAA | -1.18
AGATCTCAAAGTCCAAATAGCGCTAACTCT | 2.59
GACATGTTTCTAACTGCCCGCATTCTGTTC | 1.58

Sequence | binding signal (log2 normalized intensity)
TAAGGAGCTGAGTCATAGTGGACTTTGCCT | 6.9
AGCTGCAAAGGCACAGATCATATGGCCCAC | -1.17
TAATCTCAAAGTGTCAGTCCAGAGTTTGTG | 1.74
CATGCACCTGCGGATAATCAAAGGTTGGTC | 1.73
TTCAAAGGCTCCCCTAATCCCTGTGACATT | 2.22
CTAAAGGCTGTGTCGGTATAAGTTCTACAT | 0.443
AAGGCAGGAGAATCGCTTGAACCCAGGGGA | -0.996
GGGCTCTCAGAATCTGCCGATCACTGGCCC | -1.04
TCTGTCCTTTGTCCCACATCTGTGAAGATA | 1.6
TTTTGCCTTGCATCAGAATCTGGACAGTGT | 1.67
CGGCCGCTCCCTCCCCTCCTCCCTTGCTCA | 4.16
AGGCCCCAGCCACGCCCTCTAACCCAGGTT | 3.08
GTCAGTCATACAGAGCTGTCACGCAGTGTT | -0.423
CGGACGTGTTCCCACAGTGCCCTCTATTGG | 2.35
TTGCAACCAAAGGAGTCCTGGCTGACAGAT | -0.806
GCCTAACTTTGATAGGCACAATCAGCAAAC | -1.17
GGGGATGAAGGGGGCGGGGGCGAAAGGGAG | -1.05
CCACAACCTACCCTTTGCCCTGGACATATT | 2.7
TCACCCACCAGAGGGAACGCCCGACGCGAA | -1.11
GAGAGGAGCAGGGTATCAGTTGAACAGAAT | -0.931
AGCCTCAAAGATCAAAGGTAGATGAATCCA | 0.2
ACATAGTCCCTGCACAGGTTCCTCGCCTAT | -1.12
GCTTGCAAGACTGCATTCTCTAGATGTCCC | 0.328
ACCCAGGCATATCCAACCTTCTCCCACTTC | -1.12
AAACCTACACAGACCCTCTTTTCTTTGTAC | 1.26

Sequence | binding signal (log2 normalized intensity)
TCTTCATTTCCCTCATGCAGGGAGGTCAAA | 2.61
GGCAAAACACCCCTTTCACTTCTTCCCCTC | 3.8
ATTGTGAAACGTTTGAATTCTTGCCTATCC | -1.08
TAACCTGCAGTTTCCCTATTCTCAGTGATA | -1.03
GAAATTTCCTCTTACCACATCTCAACCTTT | 3.14
CTGTGTGGGAAGAGGGCCTAGGGCAGATCC | -1.12
GAATTGGGACCTGAGAACATGTAATCATTT | 0.357
AGACTCAGCATGTCTTCTGACCTTTGGCAA | 6.26
ACTTCAAGGGAGTAAAGGTCGTTCTATCGG | 4.09
CAAGCTCTAGCATCCCTCTCTTGCTGGGCC | -1.27
AAGCTTTCTTGGGCAAGAAAGGGGTCAGCA | 2.08
GGACACAAAGTGGACAGTGTCTGACTAGAG | -0.785
CCTTCGCTCGGCTCGCTCTCCCTGCTGGCC | -0.911
TTTACTTTTTAAACACCTAGAGTTACAGTC | -1.09
TCCAGCTCTGTGACTTTACCTGAAATGAGA | 0.349
CCATTGTTATCTGATCAAATTCCACACCCC | 3.11
AGCCTAGGGTGAGGTGTTCGGGGGACGGAG | -1.11
GCACAACATACTTGGAGACAGTCACTCCCA | -1.06
ACTGGTTTTTCTTGGGTGTATGGGTATAGG | 2.59
TGGAATGTCTCTGGTTGAAGGGGAGGTTAT | 1.11
GAAGGATAGAGAGTTGGGAGGGAACAGTCC | -1.12
AGCTGTGTCTACCCTTTTGCCCTTTGAGCT | 5.72
GCATCTGGACCATTGCTGACCTTGCCTCTG | 1.61
GTCCTGTGGGGCCCAGAGCCAGGTGTGCTG | -0.375
AATGCCAGGCATTTGCGATAATAGAGATTG | -1.18

Sequence | binding signal (log2 normalized intensity)
AGTGGGAGGTGGAAGTGGCAGATTAGAGAC | -1.16
CCTCCGCTCCGCCGGACCGGCCAAACTGGT | -1.03
GTGGAGGATTTGGGTGATGTTTGGTTAAGA | 1.25
CTGTGTTATGCTTGCAGGTGTCAGGGGTCA | 3.94
CCTTTCATGTTGAACGTCTTCAGAAACTAA | 0.771
AGAAAGGTCTAAAAGTAGCTGTTGGAATTT | 1.39
TCCACATGTGGGGAAACTGGACTGTAATTT | 1.71
TTCTGAGAGTGGCAAGCAGGAGCTGGCCTG | -1.04
GACATAAAATTAAAGCGGACGGGCTGCGGA | -1.17
GCAGAGGCTGCAGAGGTTTCGCAAGGACGT | -0.792
AGCAATGTTTCTTGTCCAGGGACTTTGAAC | 5.74
GTTTTACAAACACAATGGAAGGCTGTATGT | 0.502
CCACCACAAACCCTTCATCCAGCTGTGCTT | -0.538
TGACCCTTGAACAATGTGGGGGTCGGGGCA | 2.16
TACACAAGTAGAATGAAAGCGGCTCAGGAA | -1.16
TATTCAGTCCCCCATCCCAGAGGTCAAACT | 5.08
TGAAACAGTGGGCAATATGAAGGGGAAAAA | -0.838
CAACAGGTATGCTCCAAAGATGATGCCTCA | -0.799
TTGTGCAAATGGAAAATTGTAATCTTCAGC | 0.503
GGTGTGTTGCAACTTTGACTATAGCGTCTC | 0.723
TCTCTGCTTGCAATTTTTGTTCAGTCATTG | 1.14
CCAACAAGGCAGGAGATTCCACATTCCCTT | -1.17
GCAGTGTGGGGACCTGGACTCCCAAGATGG | -1.1
GAAGTTTGGCAATTACCCAACAGACTTTCC | -1.1
CCCCCCTCACACTTTGGCTACTCAGTTTTT | 1.39

Sequence | binding signal (log2 normalized intensity)
ACCAAACCTGAAAAACCTCTCTCCAGGTAC | -0.888
TGAAGTTCCAGAGCCTTCAAAGGAAAGCAG | -1.19
GACTCCACAGTGGGGCAGATCACAAGCACC | -1.11
GGTTTGCTCTGCTACTGACCAGATGTTATT | 1.03
TCTCATTCACACCCTCAGCTGATGGGTCTC | 1.21
CCCTTTCCTCATATTTTGCATACCAAGGGA | 1.31
CTTGGGGCTGATGTCTTTCTGGCTGGAGAG | 1.05
TTCCACCTGGAATGCACTTGTTCCGGATAG | 1.11
TCACAGCTATTGTATCTATCTCTATGTCCA | 1.09
CCCAGTTAACTGGACAAGGAGGCTGGGCTG | -1.15
TGCACATTCCCTCCAGCAGGGGATGCCCTT | 2.38
GAGTAGAGGTGACTTACATGCAGAGATACT | -1.13
TTGACCATTGTGTTAAAGGAATTCAGGACT | 0.875
GCAAAGTTCAACCCTGAATGTGTGCTGGCC | 0.977
TAACTGCTGCATGTCATGACCTTCATCAAT | 2.46
AAACGCTGAAGTCTCAAAGTTCACCACTTT | 2.66
ATAAAGTTAAGACCTACATTAAGACCACCT | -1.18
ACATTTTTGTCATCTTCACTTTTGTGGCCT | 2.15
GCCCCACACTCCTGGGCTGTATGTTCTAAC | -0.294
ATCGGTCTTTACACATCTGTTAGGAATGTC | 1.42

Source: paper PMC10726135
